The record followed here is ChEMBL document CHEMBL4888484, “Replenishing the malaria drug discovery pipeline: Screening and hit evaluation of the MMV Hit Generation Library 1 (HGL1) against asexual blood stage Plasmodium falciparum ,using a nano luciferase reporter read-out” (2022).

SMILES strings stand for the structures. Hit rate of the full screen: of about 150,000 compounds, about 540 (0.36%) showed an effect of 50% or more. This is one part of the list.

The test concerns Plasmodium falciparum. Kind of test: Primary screen in NF54 nanoGlo assay, in single point, at 2uM, 72h; a lower Z score goes with more inhibition. The format is functional, Erythrocyte. To be noted: timepoint 72 hour.
In general, % Inhibition refers to the drop in the measured response relative to a control, in per cent. In the case of `C[C@@H](CN1CCCCC1)c1nc(-c2cccc(F)c2)n[nH]1`, the “% Inhibition” value is reported as -5% and the Z score was 0.64.

For the compound `CCc1nc(-c2ccc(N3CCN(C(=O)c4ccc(C)c(C)c4)CC3)cc2)no1`, the “% Inhibition” value stood at 3% and the Z score is -0.32.

For the compound `CN1CCN(S(=O)(=O)N2CCCCCC2)C[C@]12CCNC(=O)CC2`, the “% Inhibition” value is -6% and the Z score is reported as 0.76.

On to `Cc1csc(C(C)Cn2nnnc2N2C[C@@H](C)O[C@@H](C)C2)n1` (stereo partly drawn), for which the “% Inhibition” value is -11% and the Z score was found to be 1.37.

Consider `Cc1nc2c(c(N3CCCC3)n1)CCN(C(=O)N(C(C)C)C(C)C)C2`, for which the “% Inhibition” value is -8% and the Z score was determined as 0.77.

Turning to `c1ccc(Cn2ccnc2CN2CCOCC2)cc1`, the “% Inhibition” value is given as -6% and the Z score is 0.8.

For `O=S(=O)(CC12CCC(CC1)CC2)N[C@H]1CC12CCOCC2`, the “% Inhibition” value was -6% and the Z score is given as 1.01.

As for `COc1cc(=O)c(C(=O)N2CCN(S(N)(=O)=O)CC2)nn1-c1ccc(F)cc1`, the “% Inhibition” value came out at 5% and the Z score is reported as -0.83.

Turning to `COCCOCC(=O)N1CCC2(CC1)C[C@H](c1ccccc1)C(=O)N2C`, the “% Inhibition” value was -6% and the Z score is 0.73.

For `COCCC1(C(=O)NCc2noc(-c3ccsc3)n2)CCC1`, the “% Inhibition” value is on record as -7% and the Z score turned out to be 0.92.

Take `CC(NC(=O)C(C)n1sc2ccccc2c1=O)c1ccc2c(c1)OCCO2` (stereo not drawn): the “% Inhibition” value was -11% and the Z score is listed as 1.91.

Take `COc1cccc([C@@H](O)Cn2cnc3c(ncn3C)c2=O)c1`: the “% Inhibition” value is 3% and the Z score is recorded as -0.44.

For the compound `Cc1ccccc1CC(=O)N1CCC[C@H](Cn2cc(C(=O)N3CCCC3)nn2)C1`, the “% Inhibition” value is -7% and the Z score amounted to 1.33.

As to `Cc1nc(CN(C)C(=O)C(=O)Nc2ccc(F)cc2Cl)no1`, the “% Inhibition” value is given as -29% and the Z score is recorded as 3.4.

Turning to `CCCCc1ccc(NC(=O)N2CC[C@]3(C2)c2nc[nH]c2CCN3C)cc1`, the “% Inhibition” value is -17% and the Z score is given as 2.86.

Regarding `CCCS(=O)(=O)N1CCC(F)(c2nc(-c3ccncc3)no2)CC1`, the “% Inhibition” value is given as -11% and the Z score is reported as 1.44.

On to `CCn1cnc(NC(=O)NCCc2nnn[nH]2)n1`, for which the “% Inhibition” value is given as 0% and the Z score is listed as -0.04.

As to `CC(C)N(Cc1nccn1C)C(=O)[C@H]1CCC(=O)N(CCc2ccccc2)C1`, the “% Inhibition” value was -4% and the Z score is recorded as 0.37.

`CCc1cc(NC(=O)CCC(F)(F)F)nc(C)n1`: the “% Inhibition” value is reported as -2% and the Z score was found to be 0.32.

With `CN(C(=O)c1cccn(C)c1=O)C1CCCC1`, the “% Inhibition” value was -2% and the Z score was 0.3.

In the case of `O=C(NC1CCCC1Oc1ccccc1)c1ccncc1` (stereo not drawn), the “% Inhibition” value is -13% and the Z score is recorded as 1.9.

For `CC[C@H]1Cc2ccccc2CN1C(=O)NCc1nc(C)cs1`, the “% Inhibition” value was -2% and the Z score stood at 0.37.

`O=C(Cn1nc2c(N3CCCC3)nc3ccccc3n2c1=O)Nc1ccc(F)cc1`: the “% Inhibition” value is reported as -9% and the Z score is listed as 1.16.

As for `COc1ccc(C2CC(c3ccccc3)n3ncnc3N2C(=O)CC(C)C)cc1` (stereo not drawn), the “% Inhibition” value amounted to 5% and the Z score is listed as -0.78.

`Cc1ncc(-c2nc([C@H]3CCOC3)no2)c(C)n1`: the “% Inhibition” value is recorded as -16% and the Z score came out at 1.71.

`CNC(=O)C(=O)Nc1ccccc1C(F)(F)F`: the “% Inhibition” value was found to be 34% and the Z score is reported as -0.94.

On to `Cc1ccc(NC(=O)[C@@H](N)COC(C)C)cn1`, for which the “% Inhibition” value is -19% and the Z score is on record as 3.33.

For the compound `CC(=O)NC[C@H]1CCCN(c2nc3nonc3nc2N2CCCC2)C1`, the “% Inhibition” value was -18% and the Z score is 2.04.

Consider `O=C(O)CCc1ccc(-c2ccc(F)cc2)n1NC(=O)c1ccccc1Br`, for which the “% Inhibition” value is on record as 2% and the Z score is on record as -0.29.

Take `Cc1c[nH]c(CN(C)C(=O)c2cnn(C)c2C)n1`: the “% Inhibition” value is recorded as -4% and the Z score came out at 0.78.

Take `Cc1nnc(OCc2ccccc2C)s1`: the “% Inhibition” value is -1% and the Z score amounted to 0.2.

On to `O=C(CC1=CCCCC1)N1CC[C@@]2(CCCN(CC3CCC3)C2=O)C1`, for which the “% Inhibition” value is reported as -12% and the Z score came out at 1.77.

As for `COCc1nc(CN2CCCC2)n(-c2ccncc2)n1`, the “% Inhibition” value is given as -10% and the Z score was found to be 2.08.

As to `Cc1ncc(C(=O)OCC(=O)N(C2CCCC2)[C@H]2CCS(=O)(=O)C2)s1`, the “% Inhibition” value was -14% and the Z score is recorded as 1.86.

As for `Cc1cccc(OCC(=O)N2C3CCC2CC(F)C3)c1` (stereo not drawn), the “% Inhibition” value is listed as -1% and the Z score amounted to 0.14.

With `O=C(CCn1cccn1)N1CCC2(CC1)CN(c1ccncn1)C[C@@H]2CO`, the “% Inhibition” value is given as -15% and the Z score was found to be 2.14.

With `CC(C)c1ccc(NC(=O)C2CCN2C(=O)C(Cc2ccccc2)NC(=O)C(F)(F)F)cc1` (stereo not drawn), the “% Inhibition” value was 12% and the Z score was -1.39.

Turning to `COC(=O)CNC(=O)COc1ccc(Cl)cc1`, the “% Inhibition” value is given as -11% and the Z score stood at 2.12.

Regarding `CN1CCCN(C(=O)Cc2noc3ccccc23)c2nc3ccccc3nc21`, the “% Inhibition” value is -8% and the Z score was 1.05.

Take `CC(C)(C)NC(=O)Cc1ccc(O)cc1`: the “% Inhibition” value is 1% and the Z score is -0.15.

Consider `CCCN1C[C@@H](NC(=O)c2nc3ccccc3[nH]c2=O)CC1=O`, for which the “% Inhibition” value is given as -2% and the Z score is listed as 0.27.

For the compound `COc1ccc(CN2CCN(C(=O)NC[C@H]3COc4ccccc4O3)CC2)c(OC)c1OC`, the “% Inhibition” value is reported as -9% and the Z score is 0.98.

For `O=C(Nc1ccc(CN2CCOCC2)cc1)c1[nH]nc2c1CCCC2`, the “% Inhibition” value was -18% and the Z score came to 1.83.

With `O=C(Cc1cccnc1)N1CC(Nc2cnccn2)C1`, the “% Inhibition” value is recorded as -18% and the Z score is recorded as 2.06.
